The list shows a part of the results. Each Rep nickase domain was tested in vitro on the same pool of single strands for 1 h at 37 °C with 3 µM enzyme; only the middle of the 90-letter strands is printed. Numbers give uncut DNA relative to the enzyme-free pool, as log2; strong cutting gives strongly negative numbers. There is no active / inactive call. Because reads are shares of a total, they shift together; values above 0 arise when much of the pool is cut.
Columns and labels:
Assay in all cases: uncleaved DNA left, log2 of reads against the no-enzyme library (log2 ratio); higher = less cleavage (more negative = more Rep cleavage of the k-mer); sequences stand for … in CTCGTCCG…ACCGGAGA
[1] = tested on: T1, Rep nickase domain of Muscovy duck circovirus
T1 sequence (Rep 1-111, printed without the tag): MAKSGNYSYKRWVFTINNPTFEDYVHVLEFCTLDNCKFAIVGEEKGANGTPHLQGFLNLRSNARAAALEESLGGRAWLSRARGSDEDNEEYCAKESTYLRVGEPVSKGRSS
Method: (§1)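 A pool of 90-nt single-stranded DNAs with seven random bases just before the constant AC of the nick site (name = the seven bases) was cut by 3 µM recombinant His6-SUMO-tagged Rep nickase domain (300 nM DNA, 50 mM HEPES pH 8.0, 50 mM NaCl, 1 mM MnCl2, 1 h, 37 °C, three replicates). Uncut DNA was amplified and sequenced.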

[2] = tested on: T2, Rep nickase domain of banana bunchy top virus
T2 sequence (Rep 1-94, printed without the tag): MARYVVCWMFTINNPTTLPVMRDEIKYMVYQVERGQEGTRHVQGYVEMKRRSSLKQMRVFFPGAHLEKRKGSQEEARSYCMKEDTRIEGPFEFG
Method: as §1

[3] = tested on: T3, Rep nickase domain of cabbage leaf curl virus
T3 sequence (Rep 1-116, printed without the tag): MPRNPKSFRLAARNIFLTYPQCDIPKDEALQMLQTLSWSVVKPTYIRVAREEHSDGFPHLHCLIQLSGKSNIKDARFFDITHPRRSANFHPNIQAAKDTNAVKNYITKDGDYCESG
Method: as §1

[4] = tested on: T4, Rep nickase domain of chickpea chlorotic dwarf virus
T4 sequence (Rep 1-124, printed without the tag): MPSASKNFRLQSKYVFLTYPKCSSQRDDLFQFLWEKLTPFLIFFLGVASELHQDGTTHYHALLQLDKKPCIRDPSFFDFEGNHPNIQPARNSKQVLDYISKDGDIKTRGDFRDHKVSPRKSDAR
Method: as §1

[5] = tested on: T5, Rep nickase domain of faba bean necrotic yellows virus
T5 sequence (Rep 1-98, printed without the tag): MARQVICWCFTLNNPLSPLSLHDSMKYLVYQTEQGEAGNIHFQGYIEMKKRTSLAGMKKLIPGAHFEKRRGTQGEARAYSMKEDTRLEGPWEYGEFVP
Method: as §1

[6] = tested on: T6, Rep nickase domain of maize striate mosaic virus
T6 sequence (Rep 1-117, printed without the tag): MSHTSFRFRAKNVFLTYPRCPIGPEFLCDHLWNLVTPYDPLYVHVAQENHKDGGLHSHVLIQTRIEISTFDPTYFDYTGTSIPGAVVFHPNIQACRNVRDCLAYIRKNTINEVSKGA
Method: as §1

[7] = tested on: T7, Rep nickase domain of porcine circovirus 2
T7 sequence (Rep 2-116, printed without the tag): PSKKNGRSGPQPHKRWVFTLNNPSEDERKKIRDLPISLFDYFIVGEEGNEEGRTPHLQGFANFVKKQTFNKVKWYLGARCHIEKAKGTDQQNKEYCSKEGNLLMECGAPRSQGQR
Method: as §1

[8] = tested on: T8, Rep nickase domain of tomato golden mosaic virus
T8 sequence (Rep 1-124, printed without the tag): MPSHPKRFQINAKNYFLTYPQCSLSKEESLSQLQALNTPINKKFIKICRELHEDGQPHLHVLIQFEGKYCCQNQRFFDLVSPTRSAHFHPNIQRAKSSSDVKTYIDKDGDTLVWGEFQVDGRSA
Method: as §1

[9] = tested on: T9, Rep nickase domain of tomato yellow leaf curl virus
T9 sequence (Rep 1-136, printed without the tag): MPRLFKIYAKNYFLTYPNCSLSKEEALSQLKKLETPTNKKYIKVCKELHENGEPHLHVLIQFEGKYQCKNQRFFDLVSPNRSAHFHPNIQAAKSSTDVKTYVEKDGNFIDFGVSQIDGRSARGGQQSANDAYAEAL
Method: as §1

[10] = tested on: T10, Rep nickase domain of wheat dwarf virus
T10 sequence (Rep 1-137, printed without the tag): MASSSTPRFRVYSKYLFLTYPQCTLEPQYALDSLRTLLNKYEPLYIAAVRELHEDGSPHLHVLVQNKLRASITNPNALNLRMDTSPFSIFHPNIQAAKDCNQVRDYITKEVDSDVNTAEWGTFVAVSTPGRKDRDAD
Method: as §1

| Sequence | uncleaved DNA left (log2) [1] | uncleaved DNA left (log2) [2] | uncleaved DNA left (log2) [3] | uncleaved DNA left (log2) [4] | uncleaved DNA left (log2) [5] | uncleaved DNA left (log2) [6] | uncleaved DNA left (log2) [7] | uncleaved DNA left (log2) [8] | uncleaved DNA left (log2) [9] | uncleaved DNA left (log2) [10] |
| --- | --- | --- | --- | --- | --- | --- | --- | --- | --- | --- |
| ACCTCCC | -0.0959 | 0.0654 | -0.094 | -0.0377 | 0.0983 | 0.224 | -0.0284 | -0.021 | -0.123 | -0.0109 |
| CAGTTCA | -0.208 | -0.54 | -0.306 | -2.62 | -0.919 | -0.834 | -2.99 | -0.136 | -0.0912 | -0.095 |
| ATTAATT | -1.76 | -1.63 | -0.0307 | -2.42 | 0.0949 | -0.671 | -3.35 | 0.0497 | -0.0304 | -0.0253 |
| TCGTAAG | 0.0284 | -0.136 | -0.421 | -0.557 | -0.0978 | -1.1 | -0.0167 | 0.00683 | -0.0301 | -0.131 |
| CCTTTTG | 0.0465 | 0.0476 | -0.723 | -0.433 | 0.0838 | -1.21 | 0.156 | -0.0951 | -0.0189 | 0.0195 |
| CTCCGAA | 0.0198 | 0.0889 | 0.306 | 0.406 | 0.103 | -0.0122 | 0.194 | 0.0606 | 0.163 | 0.203 |
| CCGTAGG | 0.165 | -0.0348 | 0.193 | 0.735 | 0.0245 | 0.502 | 0.245 | 0.177 | 0.0955 | 0.00013 |
| GTCACTG | -0.0719 | 0.104 | 0.193 | 0.742 | 0.0652 | 1.64 | 0.0741 | -0.0428 | 0.0142 | 0.0652 |
| GAGATAA | 0.106 | 0.157 | 0.486 | 1.2 | 0.0581 | 1.56 | 0.0504 | 0.16 | 0.244 | 0.0717 |
| AGTTTAG | 0.15 | -0.0186 | -0.71 | -0.447 | 0.0586 | -1.25 | 0.12 | 0.0562 | 0.0401 | -0.0278 |
| GAGATCA | 0.0297 | 0.158 | 0.573 | 0.902 | 0.0985 | 1.64 | -0.334 | 0.0747 | 0.0518 | 0.26 |
| CTATATA | -0.217 | -0.134 | -0.085 | -1.65 | -0.0129 | -0.835 | -0.19 | -0.0398 | -0.0875 | -0.0139 |
| ATTTCTT | -3.04 | -3.04 | -0.181 | -2.57 | -0.00391 | -0.626 | -3.1 | 0.0541 | 0.0556 | -0.0598 |
| CGAGTGT | 0.123 | 0.0148 | -0.114 | 0.559 | -0.0461 | 1.35 | 0.035 | 0.0496 | -0.0274 | 0.082 |
| CCAATCA | -0.0779 | 0.12 | 0.0484 | -0.436 | 0.0649 | -0.0655 | 0.00686 | -0.0301 | 0.0814 | 0.131 |
